# From PubChem BioAssay AID652104 (National Center for Advancing Translational Sciences (NCATS), 2013)
# In all, about 410,000 compounds went through this assay and about 7,200 (1.8%) were called active. Inconclusive means that the source gave no clear call. Such entries were picked first, then a sample of the others. The call rests on the fitted dose curve; in most records, active means well fitted activation curve with a large enough effect; inconclusive means small, poorly fitted or top-dose-only effect, or another doubt; inactive means no such curve, though single readings can be large or run the other way. No potency is given beside an inconclusive call; the fits are too rough.
# Assay: qHTS of TDP-43 Inhibitors; further: nearly all actives have a fitted effect of over 50% in size
# Conditions: TDP-43 expressing yeast growth rescue, BacTiter-Glo, 24 h; series mostly up to 46.1 µM
# Outline: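 Readout is BacTiter-Glo luminescence of cell growth, so inhibitors register as activators. TDP-43-expressing yeast at OD600=0.02 in galactose medium, after raffinose pregrowth to mid-log, were incubated with compound for 24 hr at 30 deg C.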
# Potency means the concentration at half of the fitted maximal effect; tags describe the fitted curve by direction and shape.
row,Compound,Potency
1,O=C(NCCc1ccccc1Cl)c1ccc2nc3ccccc3c(=O)n2c1,"inconclusive [activator, partial curve]"
2,Cc1ccc(C)c(N2CCN(C(=O)Cn3c(-c4cccs4)cc4ccccc43)CC2)c1,inactive
3,Cc1ccc(N2CCN(C(=O)c3c4c(nc5ccccc35)C(=O)N(C3CCCCC3)C4)CC2)c(C)c1,inactive
4,CCN1CCN(S(=O)(=O)c2ccc(Cl)c(C(=O)NCc3ccco3)c2)CC1,inactive
5,CCc1noc(C)c1C(=O)Nc1ccc(F)c(F)c1,"inconclusive [activator, partial curve]"
6,O=C(O)c1ccc(N2C(=O)C3ON(c4ccccc4)C(c4ccccc4F)C3C2=O)cc1 (stereo not drawn),"inconclusive [activator, partial curve]"
7,O=C(NCc1ccccc1)c1nccnc1CO,inactive
8,CCC1(CC)Cc2ccccc2C(N)=C1C#N,"inconclusive [activator, partial curve]"
9,CCN(CC)C(=S)SCC(=O)Nc1ccc(F)cc1,active: 14.1 µM
10,COc1ccc(CCNc2ncnc3c2c(-c2ccccc2)cn3-c2ccc(F)cc2)cc1OC,"inconclusive [activator, single point]"
11,O=C(O)CCCc1nc(-c2ccccc2)no1,"inconclusive [activator, single point]"
12,O=C(Nc1ccccc1Br)C1CC(=O)N(c2ccc3c(c2)OCCO3)C1 (stereo not drawn),"inconclusive [activator, partial curve]"
13,CC(=O)NC(c1ccccc1)c1nc(-c2cccs2)cs1 (stereo not drawn),active: 15.8 µM
14,CCc1ccccc1N(C)C(=O)c1cnc(N2CCOCC2)c2ccccc12,"inconclusive [activator, partial curve]"
15,O=C(CC1SC(N2CCCCC2)=NC1=O)Nc1cccc(C(F)(F)F)c1 (stereo not drawn),inactive
16,COc1ccc(S(=O)(=O)N(C)CC(=O)NCCN2CCOCC2)cc1,inactive
17,CN(C1CCCCC1)S(=O)(=O)c1ccc(=S)[nH]c1,"inconclusive [activator, partial curve]"
18,CCOc1cc(C2c3c(oc4ccc(F)cc4c3=O)C(=O)N2Cc2ccco2)ccc1O (stereo not drawn),inactive
19,Cc1ccc(-n2c(SCC(=O)Nc3ccc4c(c3)OCO4)nc3c([nH]c4ccccc43)c2=O)cc1,inactive
20,COc1cc2oc(=O)cc(CN3CCCCCCC3)c2cc1Cl,"inconclusive [activator, full curve, poor fit]"
21,Cc1ccc(-n2ncc3c(N4CCN(CCO)CC4)ncnc32)cc1Cl,inactive
22,Cc1cccc(C)c1NC(=O)C1CCCCN1C (stereo not drawn),"inconclusive [activator, partial curve]"
23,CCCCOc1ccc(Cn2c(=O)oc3ccc(C)cc32)cc1,inactive
24,COc1ccc([C@H]2CC(=O)C=C(/C=C/c3ccccc3)C2)cc1OC,"inconclusive [activator, single point]"

row,Compound,Potency
1,Cc1cccc(N2C(=O)CC(N3CCN(c4cccc(C(F)(F)F)c4)CC3)C2=O)c1 (stereo not drawn),"inconclusive [activator, single point]"
2,CCOCCCNC(=O)c1cc2c(-c3ccc(Cl)cc3)nn(C)c2s1,"inconclusive [activator, partial curve, poor fit]"
3,Cc1cccc(NC(=O)c2ccc(Cl)c(S(=O)(=O)N3CCCC3)c2)n1,"inconclusive [activator, partial curve]"
4,CCc1ccc(NC(=O)CN2C(=O)C(c3ccc(F)cc3)=NC2(C)C)cc1,"inconclusive [activator, full curve]"
5,Cc1ccc(C)c(NC(=O)COC(=O)c2c(C)nn(-c3ccccc3)c2C)c1,"inconclusive [activator, partial curve]"
6,COc1ccc(C(=O)NCC2OCCc3ccccc32)c(O)c1 (stereo not drawn),active: 14.1 µM
7,Cc1ccc(NC(=O)CSc2nc3ccccc3nc2Cc2ccccc2)c(C)c1,inactive
8,COC(=O)C(C)Nc1cccc(Br)c1 (stereo not drawn),inactive
9,Cc1ccc2nc(-c3ccccn3)oc2c1,inactive
10,CCCn1c(C2CCCN2c2nc(-c3cccc(Br)c3)cs2)nc2cc(Cl)c(Cl)cc21 (stereo not drawn),"inconclusive [activator, single point]"
11,Cc1cc(Cl)ccc1OCC(=O)N1CCCN(C(=O)COc2ccc(Cl)cc2C)CC1,active: 25.1 µM
12,O=C(Nc1ccccc1)c1cc(C2CCCN(C(=O)C/C=C/c3ccccc3)C2)on1 (stereo not drawn),active: 22.4 µM
13,COc1ccc(/C(N)=N/OC(=O)C2CCCCC2)cc1,active: 15.8 µM
14,Cc1ccnc2nc(C(=O)OCCOc3cccc(Br)c3)nn12,active: 15.8 µM
15,CCN1CCc2nc3sc(C(=O)c4ccccc4)c(N)c3cc2C1,"inconclusive [activator, partial curve]"
16,CCO[C@H]1OC(C(=O)N2CCN(Cc3ccccc3)CC2)=C[C@@H](C)[C@@H]1CCCO,"inconclusive [activator, partial curve]"
17,COC(=O)c1ccc2c(c1)N(Cc1cc(C)ccc1C)C(=O)c1ccccc1S2,inactive
18,O=C(COC(=O)c1ccco1)NCc1ccc(Cl)cc1Cl,"inconclusive [activator, partial curve, poor fit]"
19,Cc1onc(-c2c(Cl)cccc2Cl)c1C(=O)N/N=C(\N)COc1ccc(Cl)cc1,"inconclusive [activator, partial curve]"
20,O=C1ON=C(c2ccccc2)/C1=C/c1ccccc1,"inconclusive [activator, single point]"
21,CCC1Oc2ccc(C)cc2N(CC(=O)NCC2COc3ccccc3O2)C1=O (stereo not drawn),"inconclusive [activator, partial curve]"
22,CCN(CC)S(=O)(=O)c1ccc2c(c1)nc(CN(C)C(=O)Nc1cccc(Cl)c1)n2C,inactive
23,O=C(Oc1ccc(Cl)c2cccnc12)c1ccco1,active: 31.6 µM
24,COc1cc(NC(=S)NCCc2c[nH]c3ccccc23)c(OC)cc1Cl,"inconclusive [activator, partial curve]"
